Laboratory results taken from ChEMBL document CHEMBL4888484, “Replenishing the malaria drug discovery pipeline: Screening and hit evaluation of the MMV Hit Generation Library 1 (HGL1) against asexual blood stage Plasmodium falciparum ,using a nano luciferase reporter read-out” (2022).
Out of some 150,000 compounds screened, about 540 (0.36%) showed an effect of 50% or more. This is one part of the list.

Each molecule was assayed on Plasmodium falciparum (assay: Primary screen in NF54 nanoGlo assay, in single point, at 2uM, 72h; a lower Z score goes with more inhibition). Details: timepoint 72 hour.
Type: functional, Erythrocyte

Compound | % Inhibition [%] | Z score
O=C(CCn1cnc2cc(-c3noc(-c4ccc(F)cc4)n3)ccc21)N1CCCCC1 | -19 | 2.49
COCC[C@H]1COCCN1c1nccn2cnnc12 | -15 | 1.78
C[C@H](NC(=O)c1cc(Cl)c2c(c1)OCCCO2)c1cccs1 | -3 | 0.37
CCC(NCC1Cc2ccccc2O1)c1c(C)nn(C)c1C (stereo unspecified) | 4 | -0.66
CCc1cnc(N(C)Cc2c(C)nn(C)c2C)nc1 | 3 | -0.39
Cc1ccc(CN2CCN(C(=O)c3csc(C)n3)[C@H]3CS(=O)(=O)C[C@H]32)o1 | -10 | 1.59
O=C(CN1C(=O)N[C@]2(CCc3ccccc3C2)C1=O)Nc1ccc2c(c1)OCO2 | 3 | -0.59
COc1ccc(C[C@@H]2CC[C@H](CN3CCCOCC3)O2)cc1F | -1 | 0.14
Cc1cccc(NC(=O)[C@@H]2CCCN2c2ncccc2C#N)n1 | -10 | 1.74
CCC(C)C(C)(O)CNC(=O)C(=O)Nc1c(F)cccc1F (stereo unspecified) | -3 | 0.5
OCc1cc(/C=C/C2CCCCC2)c(F)cn1 | -5 | 0.42
CC(NS(=O)(=O)c1ccc(NC(=O)Cc2ccc(Cl)c(Cl)c2)cc1)C1CC2CCC1C2 (stereo unspecified) | -8 | 0.81
N#Cc1c[nH]c(C(=O)N2CCC3(CCCCC3)C2)c1 | -4 | 0.58
CC(C)CCNC(=O)c1[nH]cnc1C(=O)N[C@H]1CCc2ccccc21 | 6 | -0.73
Cc1cc2n(n1)CCC(=O)N2CC(=O)NC1CCCCC1 | -4 | 0.45
Cc1cc(C(=O)N2CCN(c3nccnc3C#N)C[C@@H](O)C2)no1 | 12 | -1.58
O=C(Nc1ccc(Cl)c(Cl)c1)N1CCc2nc(-c3ccccc3)nc(N3CCCCC3)c2C1 | -16 | 2.72
O=C(Nc1ccccc1)[C@H]1CCS(=O)(=O)C12CCN(C(=O)NCc1ccccc1)CC2 | -7 | 1.34
O=S(=O)(C1CC1)N1CCCC12CCC2 | -5 | 0.49
CC(=O)c1cccc(NC(=O)c2cccc(NS(=O)(=O)c3ccc4c(c3)OCCO4)c2)c1 | -9 | 1.48
CCOc1ccccc1NC(=O)Cn1cc(-c2ccccc2)c2ncn(CCCOC)c(=O)c21 | 5 | -0.71
O=C(Nc1ccc(C2CC2)cn1)N1CCCc2n[nH]cc21 | -1 | 0.22
CC1=NN(c2ccccc2)C(=O)C1C1C(=O)N(c2ccccc2)N=C1C (stereo unspecified) | -6 | 1.05
